Experimental findings from US9345663B2 (priority 2000, dated 2016) are described below.

Series [1] can be described thus: Osmolality and pH of the aerosol formulation. It counts as physicochemical.
The conditions of series [2]: in vivo.

For the compound `C[C@H]1[C@H](NC(=O)/C(=N\OC(C)(C)C(=O)O)c2csc(N)n2)C(=O)N1S(=O)(=O)O.NCCCC[C@H](N)C(=O)O` [aztreonam lysinate], in series [1] (75 mg aztreonam and 47 mg lysine reconstituted with 1 mL 0.17% NaCl), the “pH of the solution” value is listed as 4.2-7.0. Besides, the osmolality entry in series [1] (about 50 mg per 1 mL of 0.2 NS) is “about 290 mOsm/l”. In series [2], the tolerability of aerosol result was “well tolerated and safe”.
